# Assay results as given in PubChem BioAssay AID1508642 (National Center for Advancing Translational Sciences (NCATS), 2021).
# The whole screen tested about 43,000 compounds, of which about 200 (0.47%) were called active. Another 12% or so got no clear call; they are omitted. The call rests on the fitted dose curve; in most records, active means well fitted cell-killing curve with a large enough effect; inconclusive means small, poorly fitted or top-dose-only effect, or effect the other way; inactive means flat fitted curve, though single readings scatter. Some of the results follow.
# Test: Cell viability qHTS assay in S16 Pmp22-F2sN cells; further: nearly all actives have a fitted effect of over 65% in size
# Conditions: S16 Pmp22-F2sN Schwann cells viability, CellTiter-Glo, 24 h; series mostly up to 57.5 µM; activity change, negative = cytotoxicity: at the top concentration
# Summary of the method: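 S16 Pmp22-F2sN Schwann cells (500-1,000/well) in phenol-red-free DMEM with 10% FBS received 23 nL compound by pin tool for 24 h at 37 °C. Viability was then read as CellTiter-Glo luminescence after 15 min at room temperature.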
# On the % scale 0 is the no-effect control and ±100 the full control effect.
row,Structure (SMILES),"activity change, negative = cytotoxicity"
1,Cn1nnc2c(N3CCN(c4cccc(C(F)(F)F)c4)CC3)ncnc21,inactive: 13.6%
2,COc1ccc(OC)c(CNC(=O)CN2CC(C)Sc3ccccc32)c1 (stereo not given),inactive: 3.72%
3,Cc1cccc(N2CCN(C(c3ccccc3)c3nnc(-c4ccccc4Cl)o3)CC2)c1C (stereo not given),inactive: -6.78%
4,COc1ccc(-n2ncc(C(=O)N3CCOCC3)c2C2CCN(C(=O)OC(C)(C)C)CC2)cc1,inactive: 8.2%
5,COc1ccc(CNC(=O)c2cnc(N3CCOCC3)c3ccccc23)cc1,inactive: -0.0974%
6,N#Cc1ccccc1NC(=O)CSc1nnc(N)s1,inactive: 5.34%
7,Cc1ccc(Cl)cc1N1CCN(C(=O)c2cc3c(-c4ccccc4F)nn(C)c3s2)CC1,inactive: 21.9%
8,CCc1ccc2oc(-c3cc(NC(=O)c4cc([N+](=O)[O-])ccc4N4CCOCC4)ccc3Cl)nc2c1,inactive: 13.5%
9,CCCN(CCC)C(=O)Cn1c(=O)n(-c2ccc(Cl)cc2)c(=O)c2c3c(sc21)CCCC3,inactive: 17.5%
10,COc1ccc(NC(=O)CSc2nc(-c3ccco3)cc(C(F)(F)F)n2)cc1Cl,inactive: -29.1%
11,CCN(C(=O)c1cn(CC)c(=O)c2cc(OC)c(OC)cc12)c1ccc(C)c(C)c1,inactive: 29.7%
12,CC1CCc2c(sc3nnn(CC(=O)Nc4ccc(Cl)cc4)c(=O)c23)C1 (stereo not given),inactive: -2.98%
13,Cc1ccc(N2CCN(S(=O)(=O)c3ccc4[nH]c5c(c4c3)CCCCC5)CC2)c(C)c1,inactive: -14%
14,Cn1c(=O)c2sccc2n2c(CCCC(=O)NCc3ccccc3)nnc12,inactive: -2.19%
15,Cc1cccc(NC(=O)CCc2c(C)nc3c(c(C)nn3C(C)(C)C)c2C)c1C,inactive: -24.2%
16,O=C1COc2ccc(-c3cc(-c4ccccc4)c4c(n3)-c3cc(Cl)ccc3OC4)cc2N1,inactive: 0.546%
17,COC(=O)c1sccc1S(=O)(=O)N(CC(=O)NCc1ccc(F)cc1)c1ccc(Cl)cc1,inactive: -14%
18,COc1ccc(CNC(=O)c2ccc(CNS(=O)(=O)c3ccc(F)cc3)cc2)cc1,inactive: 9.79%
19,Cc1ccc(NC(=O)Cn2nnc(C(=O)NCc3cccs3)c2N)cc1Cl,inactive: -2.18%
20,Cc1nn(CC(=O)N2CCN(c3cccc(C(F)(F)F)c3)CC2)c(=O)c2cccn12,inactive: -4.7%

row,Structure (SMILES),"activity change, negative = cytotoxicity"
1,Cc1nn(C)c2c1c(C(F)(F)F)cc(=O)n2C(C)C(=O)NCc1ccccc1Cl (stereo not given),inactive: 16.5%
2,Cc1ccccc1NC(=O)CSc1nnc(-c2cccs2)o1,inactive: 13.3%
3,COc1ccc(CCNC(=O)c2ccc3c(c2)N(Cc2ccccc2C)C(=O)c2ccccc2S3)cc1OC,inactive: 2.73%
4,COc1ccccc1NC(=O)CSC1=Nc2ccccc2C2=NC(CC(=O)NCc3cccs3)C(=O)N12 (stereo not given),inactive: 4.25%
5,Cc1oc(-c2cccc(Cl)c2)nc1Cn1c(SCc2ccccc2F)nc2ccncc21,inactive: 11.3%
6,Cc1cc(C)cc(NC(=O)Cn2c(C(F)(F)F)nc3ccccc32)c1,inactive: 10.7%
7,O=C(CSc1ccc2nc(-c3ccccc3)cn2n1)Nc1cccc(F)c1,inactive: 6.89%
8,COc1ccc(NC(=O)c2c(NC(=O)Cc3ccccc3)sc3c2CCCC3)cc1,inactive: -5.17%
9,Cc1ccc(NC(=O)C2CCCN2S(=O)(=O)c2ccc3c(c2)CCCC(=O)N3)cc1Cl (stereo not given),inactive: -4.22%
10,Cc1cccc(NC(=O)CSc2nc3ccc(NC(=O)COc4ccccc4F)cc3s2)c1,inactive: 23.5%
11,Cc1cc(F)ccc1NC(=O)Cn1c(=O)ccc2cc(S(=O)(=O)N3CCC(C)CC3)ccc21,inactive: -5.35%
12,CCN(CC)CCCNC(=O)CN1N=C(c2ccccc2)CCC1=O,inactive: 4.63%
13,COc1ccc(NC(=O)Cn2c(=O)n(Cc3ccc(C(=O)NCc4ccccc4Cl)cc3)c(=O)c3ccccc32)cc1,inactive: 15.3%
14,COc1ccc(Cn2nnc3c(=O)[nH]c(C4CCN(C(=O)c5ccc(C)cc5)CC4)nc32)cc1OC,inactive: -25.2%
15,O=C1c2[nH]nc(-c3ccccc3O)c2C(c2ccc(F)cc2)N1CCO (stereo not given),inactive: 0.0834%
16,COc1ccc(OC)c(NC(=O)Cc2c(C(=O)O)n(C)c3ccc(C)cc23)c1,inactive: 0.25%
17,COc1ccc(NC(=O)CSc2nccn2Cc2ccco2)c(OC)c1,inactive: 0.387%
18,CCc1cccc(C)c1Nc1c(-c2cccc(O)c2)nc2nc(C)cc(C)n12,inactive: -10%
19,CCc1ccccc1NC(=O)CSc1ncc(S(=O)(=O)c2ccc(C(C)C)cc2)c(N)n1,inactive: -2.15%
20,Cc1ccc(CN(Cc2ccco2)C(=O)c2ccc(Cl)cc2)o1,inactive: -2.51%

row,Structure (SMILES),"activity change, negative = cytotoxicity"
1,CCc1ccc(-n2c(=O)c3c(C)c(C(=O)N(C)C)sc3n(Cc3ccccc3C#N)c2=O)cc1,inactive: -6.54%
2,CCOC(=O)c1c(C)sc(-c2c(-c3ccc(OC)c(F)c3)[nH]c3[nH]c(=O)[nH]c(=O)c23)c1O,inactive: -2.3%
3,CC1=C(C(=O)Nc2ccc(Cl)cc2)C(c2ccc(C(F)(F)F)cc2)n2nnnc2N1 (stereo not given),inactive: -6.5%
4,COc1ccc(-c2nc(SCC(=O)N3CCCCC3C)n[nH]2)cc1 (stereo not given),inactive: 0.441%
5,CCOC(=O)c1cc(-c2ccc(OC)cc2)n(CCC(=O)Nc2nc3ccc(OCC)cc3s2)c1C,inactive: -27.6%
6,CCN(CC)CCCNC(=O)CN1N=C(c2ccc(OC)cc2)CCC1=O,inactive: -6.52%
7,COc1cc(Cl)c(C)cc1NC(=O)Cn1ncc2c3ccccc3n(Cc3ccccc3)c2c1=O,inactive: 21.7%
8,CCc1ccc(CNC(=O)c2c(C)oc3ncn(CC(C)C)c(=O)c23)cc1,inactive: -2.48%
9,COc1ccc(C(=O)N2c3ccc(C)cc3C(C)(c3ccccc3)CC2(C)C)cc1 (stereo not given),inactive: -0.253%
10,CCCCNS(=O)(=O)c1ccc2nc(-c3cccnc3)cc(C(=O)NCCOC)c2c1,inactive: -3.24%
11,O=S(=O)(c1cccc(F)c1)N1CCC(Oc2ccc(-n3cnnn3)cc2)CC1,inactive: -18.4%
12,CC(C)c1ccc(OCC(O)CN2CCN(c3ccc(F)cc3)CC2)cc1 (stereo not given),inactive: -0.179%
13,COc1ccccc1CNC(=O)c1cc2c(s1)-c1ccccc1OC2,inactive: -8.01%
14,CCC(=O)N1c2ccc(S(=O)(=O)CCC(=O)Nc3ccc(Br)c(C)c3)cc2CC1C (stereo not given),inactive: -9.18%
15,CCN(Cc1ccccc1)C(=O)c1sc2nc3n(c(=O)c2c1C)CCCC3,inactive: 6.96%
16,Cc1ccc(Cl)cc1N1CCN(C(=O)CN2C(=O)CSc3c2c(C)nn3-c2ccccc2)CC1,inactive: 4.27%
17,O=C(NCc1cccs1)c1ccc(Cn2c(SCc3ccc(F)cc3)nc3cccnc32)cc1,inactive: -10.3%
18,COc1ccc(-c2cn3c(n2)sc2cc(C(=O)NCCc4ccc(OC)cc4OC)ccc23)cc1,inactive: 11.6%
19,CCc1ccc2c(c1)-c1ccccc1S(=O)(=O)N2CC(=O)N1CCCCC1,inactive: -8.28%
20,COCCNC(=O)Cn1c(=O)n(CCCCCC(=O)Nc2ccccc2)c(=O)c2sccc21,inactive: -22.5%
